PubChem BioAssay AID686978 (National Center for Advancing Translational Sciences (NCATS), 2013)
In all, about 420,000 compounds went through this assay and about 64,000 (15%) were called active. The inconclusive results got no clear call from the source; some entries with a clear call stand among them for comparison. The call rests on the fitted dose curve; in most records, active means well fitted inhibition curve with a large enough effect; inconclusive means small, poorly fitted or top-dose-only effect; inactive means flat fitted curve, though single readings scatter. No potency is given beside an inconclusive call; the fits are too rough.

Test: qHTS for Inhibitors of human tyrosyl-DNA phosphodiesterase 1 (TDP1): qHTS in cells in absence of CPT; further: nearly all actives have a fitted effect of over 55% in size
Details: DT40 Tdp1-/- hTDP1 cells, no CPT, ATP luminescence, 48 h; series mostly up to 46.2 µM
Method in brief: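 DT40 Tdp1-/-;hTDP1 cells, no CPT (DMSO vehicle only), 400 cells/well; compounds pin-transferred; ≥48 hr, 37 °C; CellTiter-Glo 30 min RT dark, luminescence read.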
Potency means the concentration at half of the fitted maximal effect; tags describe the fitted curve by direction and shape.

For `CCc1ccc(C(=O)NNc2cc(Cl)ccc2Cl)cc1`, which Potency is on record?
The Potency was inconclusive [inhibitor, partial curve, poor fit].

With `CCc1ccc(C(=O)NNc2ccc(F)cc2)cc1` as the molecule, how does the Potency read?
The Potency was inconclusive [inhibitor, partial curve, poor fit].

With `Cn1cc(CNC(=O)c2sc3cccc(Cl)c3c2Cl)cn1` as the molecule, how does the Potency read?
The Potency was “inactive”.

For `CSCCC(NC(=O)c1ccc(Cl)cc1Cl)C(=O)N1CCCCCCC1` (stereo not given), which Potency is on record?
Its Potency is active: 23.1 µM.

For `CC1CCCCN1C(=O)Cn1c(SCC(=O)N(C)c2ccccc2)nc2ccccc21` (stereo not given), which Potency is on record?
Its Potency is inconclusive [inhibitor, single point].

Which Potency does the source give for `CC(Sc1ccc(Cl)cc1)C(=O)NNC(=O)c1ccccc1O` (stereo not given) here?
The Potency was active: 7.31 µM.

With `O=C(N/N=C/C=C/c1ccccc1)c1cccc(Br)c1` as the molecule, how does the Potency read?
Its Potency is active: 20.6 µM.

Which Potency does the source give for `CC(C)Oc1ccc(C(CC(=O)O)n2cnnn2)cc1` (stereo not given) here?
Its Potency is “inactive”.

With `COc1ccc(NC(=O)N(C)[C@H]2C[C@H]3c4[nH]c5ccc(-c6ccc7c(c6)OCO7)cc5c4CCN3C[C@H]2[C@H](C)O)cc1` as the molecule, how does the Potency read?
The Potency was active: 10.3 µM.

For `CC1NC(C)c2c(ccc3ccccc23)O1` (stereo not given), which Potency is on record?
The Potency was inconclusive [inhibitor, full curve].

With `C/C(=N\NC(=O)c1cc(-c2ccncc2)nc2ccccc12)c1ccc(OC(F)F)cc1` as the molecule, how does the Potency read?
Its Potency is inconclusive [inhibitor, single point].

Which Potency does the source give for `O=C(C1CCCN(c2ncnc3c2nc2n3CCCCC2)C1)N1CCN(c2cccc(Cl)c2)CC1` (stereo not given) here?
Its Potency is active: 18.4 µM.

Which Potency does the source give for `COc1ccc(C[C@H]2CN3C(=NC[C@@H]3Cc3ccc(O)cc3)N2CCNC(=O)c2ccc(C)c(Br)c2)cc1` here?
The Potency was active: 13 µM.

With `CCC(C)c1ccc(OCCn2ccnc2)cc1` (stereo not given) as the molecule, how does the Potency read?
The Potency was inconclusive [inhibitor, single point].

For `CC(C)C1Oc2ccccc2C(=O)N(CC(=O)c2ccc3c(c2)OCCO3)C1=O` (stereo not given), which Potency is on record?
Its Potency is inconclusive [inhibitor, single point].

For `Cc1nnc(-c2cccc(Br)c2)c2cn(-c3ccccc3)nc12`, which Potency is on record?
The Potency was inconclusive [inhibitor, partial curve].

For `O=C(NCCNC(=O)c1ccccn1)c1ccc(F)cc1`, which Potency is on record?
The Potency was “inactive”.

Which Potency does the source give for `O=C(NC(Cc1ccccc1)c1nc2ccccc2[nH]1)c1ccc(Cl)c([N+](=O)[O-])c1` (stereo not given) here?
Its Potency is active: 23.1 µM.

Which Potency does the source give for `Cc1ccc(S(=O)(=O)N(CC(=O)Nc2cccc([N+](=O)[O-])c2)Cc2ccc(Cl)cc2)cc1` here?
The Potency was active: 25.9 µM.

For `Cc1ccc(C(=O)N/C(=C/c2ccc(Cl)cc2)C(=O)N2CCOCC2)cc1`, which Potency is on record?
Its Potency is “inactive”.

With `COc1ccc(N2CCN(CCNC(=O)CCN3C(=O)COc4ccccc43)CC2)cc1` as the molecule, how does the Potency read?
Its Potency is “inactive”.

With `CC(C)N(N=Nc1ccc([N+](=O)[O-])cc1)C(C)C` as the molecule, how does the Potency read?
The Potency was inconclusive [inhibitor, single point].

Which Potency does the source give for `COc1ccc(NC(=O)N2CC3(CCN(C(=O)c4cc(C(F)(F)F)cc(C(F)(F)F)c4)CC3)C2)cc1` here?
The Potency was “inactive”.

For `COc1cc(/C=C2\C=Cc3ccccc32)ccc1N(C)C`, which Potency is on record?
The Potency was inconclusive [inhibitor, single point].

With `Cc1cccc(C(c2sc3nc(-c4ccco4)nn3c2O)N2CCN(c3ccccc3)CC2)c1` (stereo not given) as the molecule, how does the Potency read?
The Potency was “inactive”.

Which Potency does the source give for `CCOc1ccccc1CNS(=O)(=O)c1ccc(-c2coc(C)n2)cc1` here?
The Potency was active: 16.4 µM.

With `CCOC(=O)N1CCN(CC(O)COC(CC)c2ccccc2)CC1` (stereo not given) as the molecule, how does the Potency read?
The Potency was inconclusive [inhibitor, partial curve].

Which Potency does the source give for `Clc1cccc(-c2nc(NCC3CCCO3)c3ccccc3n2)c1` (stereo not given) here?
Its Potency is inconclusive [inhibitor, single point].

With `CCOC(=O)C1=C(C)N=c2s/c(=C\c3ccc(OC(C)=O)c(OCC)c3)c(=O)n2C1/C=C/c1ccccc1` (stereo not given) as the molecule, how does the Potency read?
Its Potency is inconclusive [inhibitor, single point].

With `COC(=O)c1ccc(/C=C/c2c(-c3ccsc3)oc3ccc(N4CCOCC4)cc23)cc1` as the molecule, how does the Potency read?
The Potency was inconclusive [inhibitor, single point].

Which Potency does the source give for `O=C(CCCN1C(=O)/C(=C/c2ccccc2Cl)SC1=S)N1CCOCC1` here?
The Potency was active: 16.4 µM.

With `O=c1c2ccccc2nnn1CSc1nc2cc(Cl)ccc2c(=O)n1Cc1ccco1` as the molecule, how does the Potency read?
Its Potency is “inactive”.

Which Potency does the source give for `COC(=O)N1C(=O)[C@@](Cc2ccccc2)(c2ccccc2)N1C(=O)OC` here?
The Potency was active: 18.4 µM.

Which Potency does the source give for `Cc1ccc(C)c(NC(=O)c2ccc3nc(CCc4ccccc4)oc3c2)c1` here?
Its Potency is “inactive”.

With `COc1ccc(NS(=O)(=O)c2ccc(Cl)c(NC(=O)c3ccccc3F)c2)cc1` as the molecule, how does the Potency read?
Its Potency is inconclusive [inhibitor, single point].

With `Cc1ccc(-c2noc(CCC(=O)N3CCN(c4cccc(C(F)(F)F)c4)CC3)n2)cc1` as the molecule, how does the Potency read?
The Potency was inconclusive [inhibitor, partial curve, poor fit].

Which Potency does the source give for `Cc1ccc(S(=O)(=O)NC(=O)c2cccn2C)cc1` here?
Its Potency is “inactive”.

For `O=C(COC(=O)Cc1ccc(Cl)cc1)NCc1cccs1`, which Potency is on record?
The Potency was “inactive”.

Which Potency does the source give for `CCN1C(=O)C(=O)N(CC(=O)N2CCC(C)Sc3ccccc32)C1=O` (stereo not given) here?
The Potency was “inactive”.

For `CC1CC2=C(NC(=S)NC2c2ccccc2F)/C(=C/c2ccccc2F)C1` (stereo not given), which Potency is on record?
Its Potency is inconclusive [inhibitor, single point].

Which Potency does the source give for `CC(=O)c1ccc([N+](=O)[O-])c(CS(=O)(=O)c2ccc(Cl)cc2)c1` here?
Its Potency is “inactive”.

With `COc1ccc(N=C2SC(CC(=O)Nc3ccccc3)C(=O)N2Cc2ccco2)cc1` (stereo not given) as the molecule, how does the Potency read?
The Potency was inconclusive [inhibitor, single point].

With `Cc1ccccc1C#CC1=CC(=O)CC(C)(C)C1` as the molecule, how does the Potency read?
Its Potency is inconclusive [inhibitor, single point].

Which Potency does the source give for `CCCCCCCCCCCCCCCC(=O)O[C@@H]1CC(C)=C(/C=C/C(C)=C/C=C/C(C)=C/C=C/C=C(C)/C=C/C=C(C)/C=C/C2=C(C)C[C@@H](OC(=O)CCCCCCCCCCCCCCC)CC2(C)C)C(C)(C)C1` here?
Its Potency is inconclusive [inhibitor, single point].

With `Cc1ccccc1C(=O)NC(CC(C)C)C(=O)OCC(=O)c1c(N)n(C)c(=O)n(C)c1=O` (stereo not given) as the molecule, how does the Potency read?
The Potency was inconclusive [inhibitor, partial curve].
